# In PMC4336329 (PLoS ONE, 2015):
# Hit rate of the full screen: of about 310,000 compounds, about 14,000 (4.5%) showed an effect of 50% or more. Effects have a minus sign here. The list shows a part of the results.
# Molecular target: human ether-à-go-go-related gene (hERG) potassium channel (human, UniProt Q12809)
# Test: primary screen, population patch clamp on CHO cells stably expressing hERG
# 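Note: peak tail current of the secondary pulse compared with the same well before compound.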
# human ether-à-go-go-related gene (hERG) potassium channel, sequence (Q12809 whole entry, looked up): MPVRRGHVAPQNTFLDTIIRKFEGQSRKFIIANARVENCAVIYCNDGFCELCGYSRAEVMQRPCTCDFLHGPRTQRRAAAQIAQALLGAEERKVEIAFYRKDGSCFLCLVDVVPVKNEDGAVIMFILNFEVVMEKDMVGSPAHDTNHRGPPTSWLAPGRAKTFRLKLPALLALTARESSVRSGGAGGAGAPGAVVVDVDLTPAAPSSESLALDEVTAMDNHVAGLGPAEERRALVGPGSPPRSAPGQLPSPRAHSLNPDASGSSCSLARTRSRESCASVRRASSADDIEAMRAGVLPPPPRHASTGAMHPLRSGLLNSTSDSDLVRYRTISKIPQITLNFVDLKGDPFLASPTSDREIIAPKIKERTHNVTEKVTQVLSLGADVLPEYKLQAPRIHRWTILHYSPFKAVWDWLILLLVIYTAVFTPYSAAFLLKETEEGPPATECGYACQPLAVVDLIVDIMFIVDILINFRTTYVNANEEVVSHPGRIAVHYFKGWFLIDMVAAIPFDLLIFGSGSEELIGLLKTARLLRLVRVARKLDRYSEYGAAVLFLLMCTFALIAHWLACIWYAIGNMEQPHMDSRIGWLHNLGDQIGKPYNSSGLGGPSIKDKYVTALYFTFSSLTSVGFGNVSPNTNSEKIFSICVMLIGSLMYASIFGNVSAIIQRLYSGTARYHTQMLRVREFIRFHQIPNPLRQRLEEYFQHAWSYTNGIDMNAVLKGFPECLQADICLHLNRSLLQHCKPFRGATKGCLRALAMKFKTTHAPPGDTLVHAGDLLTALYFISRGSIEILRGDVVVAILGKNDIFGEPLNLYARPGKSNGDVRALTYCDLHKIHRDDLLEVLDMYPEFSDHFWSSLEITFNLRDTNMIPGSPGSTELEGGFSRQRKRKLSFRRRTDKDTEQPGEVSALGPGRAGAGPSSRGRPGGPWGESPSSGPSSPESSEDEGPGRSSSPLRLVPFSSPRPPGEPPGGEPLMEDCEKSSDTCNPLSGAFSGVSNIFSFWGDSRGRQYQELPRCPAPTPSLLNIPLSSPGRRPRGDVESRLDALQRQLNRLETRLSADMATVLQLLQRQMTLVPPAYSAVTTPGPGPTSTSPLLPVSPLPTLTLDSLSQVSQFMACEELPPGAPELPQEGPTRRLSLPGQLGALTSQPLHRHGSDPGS
row,Compound,"hERG current change (%, negative = inhibition) at 10uM"
1,Cc1ccc(C)c2[nH]c(=O)c(CCNS(=O)(=O)c3ccccc3)cc12,-8.54%
2,N#Cc1cnc(N)c(Br)c1,12.5%
3,Cc1nn(C)c(NC(=O)c2ccccc2Cl)c1Br,14.8%
4,O=C(NCC1CCCO1)c1cc2c(s1)CCC2 (centres unmarked),34.1%
5,CCc1ccc(N2C(=O)NC(=O)/C(=C\C=C\c3ccco3)C2=O)cc1,5.2%
6,O=C(CSc1nc2ccccc2c(=O)n1Cc1ccco1)Nc1cccc(O)c1,3.9%
7,COC(=O)C(C)n1cnc2c(nnn2Cc2ccc(Cl)cc2)c1=O (centres unmarked),-16.4%
8,Cc1nc2ccc(S(=O)(=O)NC(C(=O)N3CCCC3)C(C)C)cc2s1 (centres unmarked),7.12%
9,O=[N+]([O-])c1cc(C=Nc2ccc3ccccc3c2)ccc1Br,7.6%
10,Cc1cc(C)n(C(=O)c2ccc([N+](=O)[O-])c(Cl)c2)n1,19.7%
11,CCCCN(C(=O)C1CC(=O)N(Cc2ccc(C)cc2)C1)c1c(N)n(CCCC)c(=O)[nH]c1=O (centres unmarked),20.4%
12,O=C(OCn1nnc2ccccc2c1=O)c1ccc2c(=O)n3c(nc2c1)CCC3,-7.06%
13,Cc1ccc(S(=O)(=O)N(C)c2ccc(C(=O)N3CCc4ccccc4C3)cc2)cc1,-40.6%
14,CCn1nccc1C(=O)Nc1ccc(Cl)cn1,-6.17%
15,CCCCN1C(=O)/C(=C2/Sc3ccc(Cl)cc3N2CC)SC1=S,16.9%
16,O=C(NCc1ccc2c(c1)OCO2)C(=O)NCC1OCCN1S(=O)(=O)c1ccc(F)cc1 (centres unmarked),-5.71%
17,CCOC(=O)c1cc2c(ccn2C)n1CC(=O)N1CCCC(C)C1 (centres unmarked),-5.62%
18,CCCCNC(=S)NNC(=O)c1sccc1C,1.59%
19,Clc1nc(-c2ccccc2)c2ccccc2n1,4.43%
20,NC(=O)Nc1cccc(C(F)(F)F)c1,1.74%
21,O=C(C[n+]1ccccc1)Nc1ccc(Oc2ccccc2)cc1.[Cl-],2.49%
22,Nc1cc(C(=O)OCC(=O)NCc2ccco2)ccc1Cl,1.41%

row,Compound,"hERG current change (%, negative = inhibition) at 10uM"
1,CC(=O)Nc1cccc(NC(=O)CSc2nnnn2Cc2ccccc2)c1,-5.41%
2,CCOc1ccc(N(CC(=O)NCc2ccccc2)C(=O)CCC(=O)Nc2nccs2)cc1,-7.72%
3,C#CCCOC(=O)N1C2=NC(C(=O)OC)=C(C(=O)OC)[C@@H]3N(C)c4ccc(OC)cc4[C@]23C[C@H]1C(=O)OC,-16.3%
4,Cn1c(C2CCCN2C(=O)OC(C)(C)C)n[nH]c1=S (centres unmarked),8.3%
5,CCOC(=O)C1CCN(Cc2cc(=O)oc3cc(C)c(Cl)cc23)CC1,8.83%
6,COc1cc(Cl)c(S(=O)(=O)N2CCN(Cc3ccc4c(c3)OCO4)CC2)cc1Cl,-3.28%
7,Cc1ccc(Cn2c(C)c3cnn(CC(=O)N4CCC5(CC4)OCCO5)c(=O)c3c2C)cc1,7.14%
8,CCOc1ccc(OCC)c(NC(=O)C2CCN(S(=O)(=O)c3cccc4nonc34)CC2)c1,17.5%
9,CC(C)n1c(N2CCCC2)nc2c1c(=O)[nH]c(=O)n2C,12.9%
10,CNC(=O)C1CC(=O)N(c2ccc(OCC(=O)N3CCCC3)cc2)C1 (centres unmarked),19.8%
11,Cc1cccc2cc(CN(Cc3cccnc3)C(=S)NCCCN(C)C)c(=O)[nH]c12,3.93%
12,COc1ccc(C)cc1Nc1n[n+](-c2ccccc2)c(-c2cccc(Cl)c2Cl)s1.[Cl-],10%
13,O=C(O)CC(C(=O)O)n1nc(-c2ccccc2)cc1-c1ccccc1 (centres unmarked),1.53%
14,CN(CCN1CCOCC1)Cc1nc(-c2ccc3c(c2)OCO3)no1,1.05%
15,COC(=O)c1cccc(N(C(=O)c2cnccn2)C(C(=O)NC2CCCCC2)c2cn(C)nc2C)c1 (centres unmarked),-1.75%
16,O=C(Cn1c(C(=O)NCC2CCCO2)cc2sccc21)c1ccccc1 (centres unmarked),-3.47%
17,O=CN/C=C/c1cc(O)ccc1O,-23.5%
18,COCCNC(=O)C(c1ccccc1)N(C(=O)Cn1nnc2ccccc21)c1cccnc1 (centres unmarked),9.33%
19,NCCc1c(C(=O)O)[nH]c2ccc([N+](=O)[O-])cc12,6.36%
20,O=C(NNS(=O)(=O)c1ccccc1)c1cc2cc3ccccc3nc2s1,-10.4%
21,COc1ccc(NC(=O)c2c3c(nc4ccccc24)CCC3)cc1S(=O)(=O)N1CCOCC1,-10.9%
22,O=c1c2c3c(sc2n(CCN2CCCC2)c(=O)n1Cc1ccccc1)CCCCC3,-34.7%
